This is one part of the list.
B1: PhoQ; a variant is named by its letters at X, in order, P23837 (parent)
chain: MKKLLRLFFPLSLRVRFLLATAAVVLVLSLAYGMVALIGYSVSFDKTTFRLLRGESNLFYTLAKWENNKLHVELPENIDKQSPTMTLIYDENGQLLWAQRDVPWLMKMIQPDWLKSNGFHEIEADVNDTSLLLSGDHSIQQQLQEVREDDDDAEMTHSVAVNVYPATSRMPKLTIVVVDTIPVELKSSYMVWSWFIYVLSANLLLVIPLLWVAAWWSLRPIEALAKEVRELEEHNRELLNPATTRELTSLVRNLNRLLKSERERYDKYRTTLTDLTHSLKTPLXXLQXXLRSLRSEKMSVSDAEPVMLEQISRISQQIGYYLHRASMRGGTLLSRELHPVAPLLDNLTSALNKVYQRKGVNISLDISPEISFVGEQNDFVEVMGNVLDNACKYCLEFVEISARQTDEHLYIVVEDDGPGIPLSKREVIFDRGQRVDTLRPGQGVGLAVAREITEQYEGKIVAGESMLGGARMEVIFGRQHSAPKDE

Variants of: B1
Assay: enrichment ratio after two sorts for PhoP signalling (ratio (wild type AVST 3.29)); higher = more functional
Conditions: with PhoP (E. coli)

Row | Variant | enrichment ratio
1 | SQSN | 7.46
2 | WTWW | ≤ 0.25
3 | GQKF | ≤ 0.25
4 | LMKL | ≤ 0.25
5 | NQLQ | ≤ 0.25
6 | TRHG | ≤ 0.25
7 | DMYA | ≤ 0.25
8 | GNRF | ≤ 0.25
9 | PWCT | ≤ 0.25
10 | MFHE | ≤ 0.25
11 | SVLI | 2.91
12 | QIST | ≤ 0.25
13 | ASGH | ≤ 0.25
14 | QHFC | ≤ 0.25
15 | HVAP | ≤ 0.25
16 | NRNR | ≤ 0.25
17 | MFML | ≤ 0.25
18 | PMYF | ≤ 0.25
19 | VHNA | ≤ 0.25
20 | CNFF | ≤ 0.25
21 | RCTI | ≤ 0.25
22 | TVCW | ≤ 0.25
23 | RTQR | ≤ 0.25
24 | VVRD | ≤ 0.25

Row | Variant | enrichment ratio
25 | TATI | 5.19
26 | ETEC | ≤ 0.25
27 | WDYH | ≤ 0.25
28 | SSYP | ≤ 0.25
29 | RNRR | ≤ 0.25
30 | PDHI | ≤ 0.25
31 | TTGH | 10.5
32 | ENEY | ≤ 0.25
33 | SQFL | ≤ 0.25
34 | FRCK | ≤ 0.25
35 | TQGL | 5.29
36 | YPHH | ≤ 0.25
37 | VEHE | ≤ 0.25
38 | FMVK | ≤ 0.25
39 | EYEV | ≤ 0.25
40 | QTKV | ≤ 0.25
41 | MAFM | 14.7
42 | QQHC | ≤ 0.25
43 | SGVQ | 20.5
44 | APWD | ≤ 0.25
45 | KMYR | ≤ 0.25
46 | PIIA | ≤ 0.25
47 | EDRF | ≤ 0.25
48 | KRYD | ≤ 0.25

Row | Variant | enrichment ratio
49 | MMAE | 0.333
50 | WQCF | ≤ 0.25
51 | TKEN | ≤ 0.25
52 | EAIS | ≤ 0.25
53 | IVCS | ≤ 0.25
54 | SLNY | ≤ 0.25
55 | RMIY | ≤ 0.25
56 | TALK | 9.82
57 | ETIK | ≤ 0.25
58 | MVSM | 12.3
59 | HLNF | ≤ 0.25
60 | AQNL | ≤ 0.25
61 | GQNN | ≤ 0.25
62 | MPAH | ≤ 0.25
63 | NGFE | ≤ 0.25
64 | QSHP | ≤ 0.25
65 | WIWY | ≤ 0.25
66 | LLNM | ≤ 0.25
67 | ATHF | ≤ 0.25
68 | SPHS | ≤ 0.25
69 | EDMV | ≤ 0.25
70 | LPPV | ≤ 0.25
71 | RWFS | ≤ 0.25
72 | NMLA | ≤ 0.25

Row | Variant | enrichment ratio
73 | AATS | 3.19
74 | YLYI | ≤ 0.25
75 | FAPT | ≤ 0.25
76 | LQWL | ≤ 0.25
77 | VVLE | ≤ 0.25
78 | DTGV | 0.428
79 | TVWN | 2.25
80 | ATRM | ≤ 0.25
81 | MTTH | ≤ 0.25
82 | VHMN | ≤ 0.25
83 | YMIQ | ≤ 0.25
84 | LTMC | 2.73
85 | CSSI | ≤ 0.25
86 | DLMV | ≤ 0.25
87 | IYYD | ≤ 0.25
88 | AFPG | ≤ 0.25
89 | ALAF | 8.13
90 | PSTV | ≤ 0.25
91 | QLFD | 3.39
92 | GHEM | ≤ 0.25
93 | VQGV | ≤ 0.25
94 | DYIK | ≤ 0.25
95 | QLYT | ≤ 0.25
96 | KCQA | ≤ 0.25

Row | Variant | enrichment ratio
97 | SIIA | 2.51
98 | IDEA | ≤ 0.25
99 | SIGT | 1.85
100 | VVVK | ≤ 0.25
101 | TDMV | 8.54
102 | GCKI | ≤ 0.25
103 | RHPS | ≤ 0.25
104 | QANF | 21
105 | MNVM | 6.13
106 | LDRH | ≤ 0.25
107 | LVLH | ≤ 0.25
108 | NLVY | ≤ 0.25
109 | IHSG | ≤ 0.25
110 | NGRW | ≤ 0.25
111 | NEQC | ≤ 0.25
112 | AFDS | ≤ 0.25
113 | YDKF | ≤ 0.25
114 | KTKC | ≤ 0.25
115 | MFSD | ≤ 0.25
116 | DEQD | ≤ 0.25
117 | EYCA | ≤ 0.25
118 | KMGK | ≤ 0.25
119 | QEDY | ≤ 0.25
120 | SGIN | 11.4

Row | Variant | enrichment ratio
121 | HRRF | ≤ 0.25
122 | PYCI | ≤ 0.25
123 | VRNL | ≤ 0.25
124 | ARDK | ≤ 0.25
125 | NGSV | ≤ 0.25
126 | YDCV | ≤ 0.25
127 | VEYY | ≤ 0.25
128 | GDHM | ≤ 0.25
129 | YMGY | ≤ 0.25
130 | PSIA | ≤ 0.25
131 | AFTP | ≤ 0.25
132 | CLTR | ≤ 0.25
133 | MSIR | ≤ 0.25
134 | SVAS | 8.9
135 | PHRF | ≤ 0.25
136 | STPS | ≤ 0.25
137 | EVAK | ≤ 0.25
138 | AVDF | ≤ 0.25
139 | HEVK | ≤ 0.25
140 | QLHT | ≤ 0.25
141 | SGAI | 12.3
142 | LICQ | ≤ 0.25
143 | EIKL | ≤ 0.25
144 | ATLG | 12.3

Row | Variant | enrichment ratio
145 | DDIL | ≤ 0.25
146 | MFVM | ≤ 0.25
147 | NLCK | ≤ 0.25
148 | HMKL | ≤ 0.25
149 | ESHM | ≤ 0.25
150 | GELS | 8.59
151 | AVAN | ≤ 0.25
152 | HLTV | ≤ 0.25
153 | DMRK | ≤ 0.25
154 | GVWW | ≤ 0.25
155 | WRLY | ≤ 0.25
156 | TRNL | 0.323
157 | MGAI | 16.1
158 | DRMV | ≤ 0.25
159 | VLQG | ≤ 0.25
160 | GSRR | ≤ 0.25
161 | YMKK | ≤ 0.25
162 | PNMP | ≤ 0.25
163 | VTCS | ≤ 0.25
164 | FMES | ≤ 0.25
165 | IMAK | ≤ 0.25
166 | KAVR | ≤ 0.25
167 | YQRK | ≤ 0.25
168 | SWDN | ≤ 0.25

Row | Variant | enrichment ratio
169 | GGAY | ≤ 0.25
170 | FGAK | ≤ 0.25
171 | LSME | ≤ 0.25
172 | RFPK | ≤ 0.25
173 | IIKS | ≤ 0.25
174 | SSYI | 2.05
175 | RPCD | ≤ 0.25
176 | MHCM | ≤ 0.25
177 | VHNM | ≤ 0.25
178 | GVMQ | 5.97
179 | HWFV | ≤ 0.25
180 | SAPL | 1.3
181 | EGDN | ≤ 0.25
182 | YFGD | ≤ 0.25
183 | ENSR | ≤ 0.25
184 | HYHE | ≤ 0.25
185 | RTDY | ≤ 0.25
186 | PFRF | ≤ 0.25
187 | DILG | ≤ 0.25
188 | ELQG | ≤ 0.25
189 | QQCP | ≤ 0.25
190 | VDGD | ≤ 0.25
191 | SDNR | ≤ 0.25
192 | KHEF | ≤ 0.25

Row | Variant | enrichment ratio
193 | MKMT | ≤ 0.25
194 | YFAW | ≤ 0.25
195 | FNIA | ≤ 0.25
196 | TLAI | 3.87
197 | TSPM | ≤ 0.25
198 | GPCT | ≤ 0.25
199 | TSCG | 7.32
200 | PDWV | ≤ 0.25
201 | MHPV | ≤ 0.25
202 | RDPR | ≤ 0.25
203 | VHGR | ≤ 0.25
204 | GYAE | ≤ 0.25
205 | WWIY | ≤ 0.25
206 | NPKR | ≤ 0.25
207 | RIQF | ≤ 0.25
208 | FHHV | ≤ 0.25
209 | HLYV | ≤ 0.25
210 | SGIH | 7.04
211 | QRHA | ≤ 0.25
212 | EGTA | ≤ 0.25
213 | ATIR | 3.68
214 | VMPH | ≤ 0.25
215 | PNIL | ≤ 0.25
216 | TPEG | ≤ 0.25

Row | Variant | enrichment ratio
217 | DMEI | ≤ 0.25
218 | FCGA | ≤ 0.25
219 | NYMD | ≤ 0.25
220 | KNRM | ≤ 0.25
221 | HIAW | ≤ 0.25
222 | EGED | ≤ 0.25
223 | ETHL | ≤ 0.25
224 | FNCG | ≤ 0.25
225 | SYLS | 0.315
226 | MRKQ | ≤ 0.25
227 | VMYH | ≤ 0.25
228 | KEIS | ≤ 0.25
229 | AQGS | 5.42
230 | PAKA | ≤ 0.25
231 | FEGE | ≤ 0.25
232 | DSRQ | ≤ 0.25
233 | ITRV | ≤ 0.25
234 | ECCD | ≤ 0.25
235 | QNSG | ≤ 0.25
236 | TRDW | ≤ 0.25
237 | RHCE | ≤ 0.25
238 | YWFG | ≤ 0.25
239 | IYAS | ≤ 0.25
240 | RRWL | ≤ 0.25

Row | Variant | enrichment ratio
241 | HSMY | ≤ 0.25
242 | GADH | ≤ 0.25
243 | PHYQ | ≤ 0.25
244 | NGYE | ≤ 0.25
245 | VLVN | ≤ 0.25
246 | ITMP | ≤ 0.25
247 | MYVQ | ≤ 0.25
248 | PVKF | ≤ 0.25
249 | PTRN | ≤ 0.25
250 | PQDR | ≤ 0.25
251 | FYAR | ≤ 0.25
252 | SLEF | ≤ 0.25
253 | DNSA | 1.38
254 | VFEL | ≤ 0.25
255 | SRDL | ≤ 0.25
256 | KANT | ≤ 0.25
257 | EKWI | ≤ 0.25
258 | FING | ≤ 0.25
259 | VWQL | ≤ 0.25
260 | ITFL | ≤ 0.25
261 | ARFY | ≤ 0.25
262 | YWQS | ≤ 0.25
263 | YWPE | ≤ 0.25
264 | YERM | ≤ 0.25

Row | Variant | enrichment ratio
265 | PRYY | ≤ 0.25
266 | ICRA | ≤ 0.25
267 | NAAP | ≤ 0.25
268 | KVPY | ≤ 0.25
269 | HLLP | ≤ 0.25
270 | VVPE | ≤ 0.25
271 | PRMG | ≤ 0.25
272 | MTDP | ≤ 0.25
273 | ISDK | ≤ 0.25
274 | CTFL | ≤ 0.25
275 | HQTD | ≤ 0.25
276 | ERGA | ≤ 0.25
277 | CTSS | ≤ 0.25
278 | WHHS | ≤ 0.25
279 | NSDT | ≤ 0.25
280 | TVVV | ≤ 0.25
281 | HEMQ | 6.08
282 | KAKV | ≤ 0.25
283 | IHEW | ≤ 0.25
284 | VEID | ≤ 0.25
285 | EKFT | ≤ 0.25
286 | MPMI | ≤ 0.25
287 | NTDR | ≤ 0.25
288 | HCAP | ≤ 0.25

Row | Variant | enrichment ratio
289 | HRFF | ≤ 0.25
290 | QIPI | ≤ 0.25
291 | FYSA | ≤ 0.25
292 | WGHD | ≤ 0.25
293 | NEKI | ≤ 0.25
294 | LNKM | ≤ 0.25
295 | RWRN | ≤ 0.25
296 | VLDI | ≤ 0.25
297 | GADK | ≤ 0.25
298 | IWCM | ≤ 0.25
299 | STAY | 3.54
300 | FADT | ≤ 0.25
301 | RRWV | ≤ 0.25
302 | NDKA | ≤ 0.25
303 | ICYF | ≤ 0.25
304 | IGYW | ≤ 0.25
305 | YYQK | ≤ 0.25
306 | TRKY | ≤ 0.25

Source: a collection of fitness landscapes (doi:10.1126/science.1257360)
